# Measurements published in PubChem BioAssay AID1460 (National Center for Advancing Translational Sciences (NCATS), 2008).
# The whole screen tested about 270,000 compounds, of which about 5,800 (2.1%) were called active. Inconclusive results, whose numbers are uncertain, are shown with a selection of clear calls. The call rests on the fitted dose curve; in most records, active means well fitted inhibition curve with a large enough effect; inconclusive means small, poorly fitted or top-dose-only effect; inactive means flat fitted curve, though single readings scatter. Potencies of inconclusive entries are doubtful fits and often do not repeat.
# Biological target: Microtubule-associated protein tau (Homo sapiens) (UniProt P10636)
# Experiment: qHTS for Inhibitors of Tau Fibril Formation, Thioflavin T Binding; further: nearly all actives have a fitted effect of over 55% in size
# Conditions: recombinant tau K18 P301L (four-repeat tau fragment), heparin-induced fibrillization, ThT fluorescence; series mostly up to 57.4 µM
# Procedure, shortened: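 Tau K18 P301L fragment (15 uM unlabeled plus 0.24 uM Alexa 594-labeled) in 100 mM sodium acetate pH 7 with compound, fibrillization induced by 20 uM heparin for 6 hr at 37 C. Thioflavin T (30 uM) added, fluorescence read after 1 hr (ex 450, em 510 nm).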
# On the % scale 0 is the no-effect control and ±100 the full control effect; potency means the concentration at half of the fitted maximal effect; tags describe the fitted curve by direction and shape.
# UniProt P10636, sequence (P10636 whole entry, looked up): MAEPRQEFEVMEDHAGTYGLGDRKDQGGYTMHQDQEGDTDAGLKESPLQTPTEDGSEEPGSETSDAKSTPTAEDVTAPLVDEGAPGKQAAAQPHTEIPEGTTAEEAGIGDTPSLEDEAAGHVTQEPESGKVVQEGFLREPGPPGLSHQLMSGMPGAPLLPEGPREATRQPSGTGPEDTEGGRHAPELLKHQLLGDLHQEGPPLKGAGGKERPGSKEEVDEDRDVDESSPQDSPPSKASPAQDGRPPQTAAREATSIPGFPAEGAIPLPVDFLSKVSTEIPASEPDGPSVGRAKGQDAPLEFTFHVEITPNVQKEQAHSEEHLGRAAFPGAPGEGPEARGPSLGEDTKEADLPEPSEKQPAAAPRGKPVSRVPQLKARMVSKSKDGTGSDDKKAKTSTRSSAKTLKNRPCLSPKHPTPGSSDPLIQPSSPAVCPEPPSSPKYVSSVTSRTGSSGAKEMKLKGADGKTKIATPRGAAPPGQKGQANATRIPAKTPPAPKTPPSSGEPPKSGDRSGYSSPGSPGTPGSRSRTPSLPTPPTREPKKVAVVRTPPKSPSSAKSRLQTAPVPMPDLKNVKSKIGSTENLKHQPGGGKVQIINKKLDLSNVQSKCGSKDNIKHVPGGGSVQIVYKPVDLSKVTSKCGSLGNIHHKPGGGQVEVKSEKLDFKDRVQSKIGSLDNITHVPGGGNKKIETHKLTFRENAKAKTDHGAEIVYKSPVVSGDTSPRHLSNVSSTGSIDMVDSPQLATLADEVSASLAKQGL
Structure (SMILES),Potency,"activity, negative = inhibition"
CC(=O)N(c1ccc2oc(=O)sc2c1)S(=O)(=O)c1cccs1,"inconclusive: 20 µM [inhibitor, partial curve]",–
Cc1cc(Br)c2[nH]c3c(c2c1)CCCC3=O,"inconclusive: 35.5 µM [inhibitor, single point]",–
CCCCC1=CC2=CC(=O)C(C)(OC(=O)C3CCCC3)C(=O)C2=CO1 (stereo not given),"inconclusive: 25.1 µM [inhibitor, partial curve]",–
COc1cccc(CNC(=O)Cn2c(=O)nc(-c3ccccc3F)c3cc(Cl)ccc32)c1,"inconclusive: 39.8 µM [inhibitor, single point]",–
CCCCCn1c(CN(C)Cc2ccccc2)nc2c1c(=O)n(C)c(=O)n2C,inactive,–
CC1CN(C(=O)N2CCC(C(=O)NCc3cccs3)CC2)c2ccccc2O1 (stereo not given),"inconclusive: 2.82 µM [inhibitor, full curve]",–
COc1ccc(NC(=O)C2CCN(c3ccc(Sc4ccc(C)cc4)nn3)CC2)cc1,inactive,–
O=c1c2c3c(sc2nc(NCCO)n1Cc1ccco1)CCCCC3,"inconclusive: 2.82 µM [inhibitor, partial curve, poor fit]",–
COc1ccc(Nc2nc(NCc3ccco3)nc(N/N=C/c3ccccc3Cl)n2)cc1,"inconclusive: 1.58 µM [inhibitor, partial curve, poor fit]",–
COc1cc(-c2nc(-c3ccccc3)c(-c3ccc(Br)cc3)[nH]2)cc(OC)c1O,"inconclusive: 28.2 µM [inhibitor, partial curve]",–
CCCCN(CC)C(=O)CSc1nc2ccccc2c(=O)n1Cc1ccco1,inactive,–
CCOC(=O)c1sc(-n2[nH]c(C)cc2=O)nc1C,"inconclusive: 6.31 µM [inhibitor, full curve]",–
O=C(CCl)c1ccc2c(c1)CCN2C(=O)C1CC1,"inconclusive: 11.2 µM [inhibitor, partial curve]",–
Cc1ccc(N=N/C(=C\O)C(=O)c2ccncc2)cc1,active: 28.2 µM,–
CC(=O)N1CCc2c(sc3c2c(=O)n(Cc2ccccc2)c(=O)n3Cc2ccccc2Cl)C1,"inconclusive: 14.1 µM [inhibitor, partial curve, poor fit]",–
COc1cccc(NC2=Nc3cccc4cccc2c34)c1,active: 11.2 µM,–
COc1ccc(Nc2nc3c(S(=O)(=O)c4ccc(C)cc4)nnn3c3ccsc23)cc1Cl,"inconclusive: 15.8 µM [activator, partial curve]",–
Fc1cccc(F)c1/C=C/c1ccc2ccccc2n1,"inconclusive: 10 µM [inhibitor, partial curve]",–
COc1cc(C=C(c2nc3ccccc3s2)c2nc3ccccc3s2)cc(OC)c1O,"inconclusive: 15.8 µM [inhibitor, partial curve]",–
NNC(=O)c1cccc(COc2ccccc2Br)c1,"inconclusive: 25.1 µM [inhibitor, partial curve]",–
Cc1ccc(Cl)cc1N1CCN(C(=O)COc2cc(=O)n(C)c3ccccc23)CC1,"inconclusive: 31.6 µM [inhibitor, single point]",–
COC(=O)c1sccc1-c1ccc(/C=N/OC(=O)c2ccccc2)o1,"inconclusive: 10 µM [inhibitor, partial curve]",–

Structure (SMILES),Potency,"activity, negative = inhibition"
COc1ccc(C(=O)NCCNc2ccc([N+](=O)[O-])cc2)cc1,"inconclusive: 10 µM [inhibitor, partial curve]",–
CN(C)c1ccc(C2=NOC(CN3C(=O)c4ccccc4S3(=O)=O)C2)cc1 (stereo not given),"inconclusive: 3.16 µM [inhibitor, partial curve]",–
COc1ccccc1Oc1ccc(N/C=C/C(=O)c2ccco2)cc1,"inconclusive: 17.8 µM [inhibitor, partial curve]",–
COc1ccccc1CNC(=O)c1ccc(N2CCOCC2)c([N+](=O)[O-])c1,"inconclusive: 14.1 µM [inhibitor, partial curve]",–
CCC1=C(OC(=O)N(CC)CC)N2C(=O)OC(=NCC3CC3)[C@]2(C)[C@H]2C1=CC[C@H]1C(=O)N(c3ccccc3)C(=O)[C@H]12,"inconclusive: 44.7 µM [inhibitor, single point]",–
Cc1cc(C)c2cc(CN(Cc3ccco3)C(=S)NCC3CCCO3)c(=O)[nH]c2c1 (stereo not given),"inconclusive: 22.4 µM [inhibitor, single point]",–
O=C(Nc1ccc(N2CCOCC2)cc1)c1cc(F)c(F)cc1Cl,inactive,–
O=c1cc(-c2ccc([N+](=O)[O-])cc2)nc2cc(-c3ccc(Cl)cc3)[nH]n12,active: 2.24 µM,–
COc1ccc(NC(=O)Cc2ccc(C)cc2)c([N+](=O)[O-])c1,inactive,–
CN(C)c1ccc(NC(=O)c2ccc([N+](=O)[O-])cc2Cl)cc1,"inconclusive: 1 µM [inhibitor, full curve]",–
N#CCC(=O)Nc1ncn(Cc2ccccc2Cl)n1,inactive,–
O=C(COC(=O)c1ccc([N+](=O)[O-])s1)Nc1ncc(C(F)(F)F)cc1Cl,"inconclusive: 25.1 µM [inhibitor, partial curve]",–
COc1ccc(-c2nnc(SCC(=O)N3c4ccccc4Sc4ccccc43)o2)cc1,inactive,–
Cc1cccc2cc3c(N)c(C(=O)N4CCc5ccccc54)sc3nc12,active: 4.47 µM,–
Cc1oc2ncnc(N3CCCCC3)c2c1C(=O)N1CCN(c2ccc(Cl)cc2)CC1,inactive,–
COc1cc(NC(=O)c2ccc(Cl)cc2)c(OC)cc1NC(=O)CN1CCCCC1,"inconclusive: 39.8 µM [inhibitor, single point]",–
CCN(CC)S(=O)(=O)c1ccc2oc(SCC3CN=C(c4ccc(OC)cc4)S3)nc2c1 (stereo not given),"inconclusive: 11.2 µM [inhibitor, partial curve]",–
Cc1[nH]n(-c2ccccc2)c(=O)c1N=Nc1ccc2c(c1)OCO2,"inconclusive: 3.16 µM [inhibitor, full curve]",–
NC(=O)/C=C\C(=O)Nc1cccc(C(F)(F)F)c1,"inconclusive: 39.8 µM [inhibitor, single point]",–
COc1ccccc1NC(=O)Cn1c(=O)n(Cc2nc(-c3ccccc3)no2)c(=O)c2ccccc21,inactive,–
CC(C)NC(=O)C1CCN(C(=O)N2CC(C)Oc3ccccc32)CC1 (stereo not given),"inconclusive: 4.47 µM [inhibitor, full curve, poor fit]",–
CCOc1ccc2nc(N3CCCC(C(=O)NCc4ccc(C)cc4)C3)sc2c1 (stereo not given),"inconclusive: 14.1 µM [inhibitor, partial curve]",–

Structure (SMILES),Potency,"activity, negative = inhibition"
O=C(CCCc1nc2ccccc2s1)N1CCN(c2ccccc2)CC1,"inconclusive: 2.82 µM [inhibitor, partial curve]",–
O=C1[C@H]2[C@H]3[C@H](O)[C@H](O)C/C(=N/OC[C@@H](O)COCc4ccco4)[C@@H]3CC[C@@H]2C(=O)N1C[C@@H]1CCCO1,–,inactive: -18.8% [at 11.5 µM]
O=C(O/N=C1\C(=O)N(c2ccccc2)c2ccccc21)C1CC1,"inconclusive: 22.4 µM [inhibitor, partial curve]",–
COc1cccc(C(=O)NCCN2CCN(c3ccc(Cl)cc3)CC2)c1,"inconclusive: 10 µM [inhibitor, partial curve, poor fit]",–
Cc1ccc(C)c(NC(=O)Nc2csc3c2CCCC3)c1,"inconclusive: 1.26 µM [inhibitor, full curve]",–
Cc1ccc(CN(C)C(=O)c2ccc3c(c2)NC(=O)CS3)o1,"inconclusive: 39.8 µM [inhibitor, single point]",–
COc1ccc(NC(=O)C2CCN(S(=O)(=O)c3c(C)noc3/C=C/c3ccc(C)cc3)CC2)cc1Cl,"inconclusive: 15.8 µM [activator, partial curve]",–
Clc1ccccc1CN1CCN(/N=C/C=C/c2ccco2)CC1,"inconclusive: 17.8 µM [inhibitor, partial curve, poor fit]",–
CC1CCc2c(sc(NC(=O)c3cc(-c4ccc(Br)cc4)on3)c2C(N)=O)C1 (stereo not given),"inconclusive: 35.5 µM [inhibitor, single point]",–
O=C(Nc1ccc(Cl)c([N+](=O)[O-])c1)c1cnccn1,"inconclusive: 25.1 µM [inhibitor, single point]",–
CCOc1c(OC(C)=O)ccc(/C=C/c2ccc3cccc(OC(C)=O)c3n2)c1[N+](=O)[O-],active: 6.31 µM,–
CNc1nc(-c2ccc(OC)cc2)c(-c2ccc(OC)cc2)s1,"inconclusive: 15.8 µM [inhibitor, partial curve]",–
O=C(Oc1c(CN2CCOCC2)cc(Cl)c2cccnc12)c1cccs1,"inconclusive: 12.6 µM [inhibitor, partial curve]",–
Cc1ccc(-n2cnc3cc(C(=O)NC4CCCCCC4)ccc32)cc1Cl,"inconclusive: 12.6 µM [inhibitor, single point]",–
COc1ccc(CCn2c(=N)c(C(=O)NCc3ccco3)cc3c(=O)n4cccc(C)c4nc32)cc1,"inconclusive: 5.62 µM [inhibitor, partial curve]",–
Cc1ccc(C2C(C#N)=C(N)Oc3n[nH]c(-c4ccccc4)c32)o1 (stereo not given),"inconclusive: 28.2 µM [inhibitor, partial curve]",–
COC(=O)c1c(NC(=O)COC(=O)c2ccccc2O)sc2c1CCCCC2,"inconclusive: 39.8 µM [inhibitor, single point]",–
Cc1ccc(-c2csc(NC(=O)c3cccc([N+](=O)[O-])c3)n2)cc1,inactive,–
O=C(/C=C/c1ccccc1Cl)N(Cc1ccc(Cl)cc1)C1CCS(=O)(=O)C1 (stereo not given),inactive,–
O=C(CSc1oc(-c2cccs2)nc1S(=O)(=O)c1ccc(F)cc1)NCC1CCCO1 (stereo not given),inactive,–
CN(C1=C(NC(=O)c2ccc(Cl)cc2)C(=O)c2ccccc2C1=O)c1ccccc1,inactive,–
